Results taken from paper PMC10272126.
Changes are numbered by the printed parent chain. These are yes or no findings as the source states them, for the method shown. Binding seen in cells or lysates may run through a third protein. Some entries that bind do so weakly or less than the wild type. For some assays here: Sequences can lack the tags named with a protein.

The chains behind the UniProt entries cited, without tags or fusion partners.
UniProt P62330: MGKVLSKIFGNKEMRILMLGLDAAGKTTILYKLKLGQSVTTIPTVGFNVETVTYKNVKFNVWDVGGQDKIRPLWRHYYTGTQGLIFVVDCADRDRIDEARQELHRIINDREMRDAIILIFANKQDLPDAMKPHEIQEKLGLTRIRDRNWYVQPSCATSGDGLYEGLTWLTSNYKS
UniProt Q15438: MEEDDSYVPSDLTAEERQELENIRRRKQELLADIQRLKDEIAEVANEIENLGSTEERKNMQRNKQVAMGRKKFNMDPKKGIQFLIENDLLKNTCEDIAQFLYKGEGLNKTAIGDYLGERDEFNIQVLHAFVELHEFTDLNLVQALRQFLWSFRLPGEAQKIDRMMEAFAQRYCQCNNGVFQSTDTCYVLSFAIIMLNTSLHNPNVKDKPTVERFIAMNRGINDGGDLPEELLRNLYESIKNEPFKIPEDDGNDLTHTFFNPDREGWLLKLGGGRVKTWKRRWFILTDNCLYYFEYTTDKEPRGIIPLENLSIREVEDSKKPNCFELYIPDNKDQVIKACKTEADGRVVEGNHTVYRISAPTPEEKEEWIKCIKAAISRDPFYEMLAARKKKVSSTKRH
UniProt Q99418: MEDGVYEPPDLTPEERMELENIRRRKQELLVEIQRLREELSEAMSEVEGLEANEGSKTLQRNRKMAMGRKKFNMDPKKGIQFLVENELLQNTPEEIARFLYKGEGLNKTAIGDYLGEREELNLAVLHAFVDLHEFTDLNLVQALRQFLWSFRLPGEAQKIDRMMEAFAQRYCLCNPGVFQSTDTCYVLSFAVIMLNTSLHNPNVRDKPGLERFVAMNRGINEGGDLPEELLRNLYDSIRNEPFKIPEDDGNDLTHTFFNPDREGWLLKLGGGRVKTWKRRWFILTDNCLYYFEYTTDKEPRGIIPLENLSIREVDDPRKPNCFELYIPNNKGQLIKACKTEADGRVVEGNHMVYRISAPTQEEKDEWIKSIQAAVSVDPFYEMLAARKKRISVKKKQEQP
UniProt O43739: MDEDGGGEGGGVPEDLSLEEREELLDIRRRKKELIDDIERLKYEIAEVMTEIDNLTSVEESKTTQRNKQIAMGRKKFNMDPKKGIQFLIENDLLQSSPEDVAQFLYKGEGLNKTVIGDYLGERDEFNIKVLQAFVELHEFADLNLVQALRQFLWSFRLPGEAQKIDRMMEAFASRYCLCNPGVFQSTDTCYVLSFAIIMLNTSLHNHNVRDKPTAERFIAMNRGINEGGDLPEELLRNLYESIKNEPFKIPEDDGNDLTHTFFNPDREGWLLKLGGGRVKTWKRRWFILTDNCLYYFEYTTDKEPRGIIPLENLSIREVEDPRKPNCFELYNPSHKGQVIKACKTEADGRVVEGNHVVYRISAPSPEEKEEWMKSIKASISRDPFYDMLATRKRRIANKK
UniProt Q8N8I0: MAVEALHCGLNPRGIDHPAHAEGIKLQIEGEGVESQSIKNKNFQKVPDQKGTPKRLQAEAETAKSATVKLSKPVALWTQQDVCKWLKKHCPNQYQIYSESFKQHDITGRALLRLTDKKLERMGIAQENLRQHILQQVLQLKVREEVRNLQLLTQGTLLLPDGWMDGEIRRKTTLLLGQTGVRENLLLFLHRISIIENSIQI
UniProt O95819: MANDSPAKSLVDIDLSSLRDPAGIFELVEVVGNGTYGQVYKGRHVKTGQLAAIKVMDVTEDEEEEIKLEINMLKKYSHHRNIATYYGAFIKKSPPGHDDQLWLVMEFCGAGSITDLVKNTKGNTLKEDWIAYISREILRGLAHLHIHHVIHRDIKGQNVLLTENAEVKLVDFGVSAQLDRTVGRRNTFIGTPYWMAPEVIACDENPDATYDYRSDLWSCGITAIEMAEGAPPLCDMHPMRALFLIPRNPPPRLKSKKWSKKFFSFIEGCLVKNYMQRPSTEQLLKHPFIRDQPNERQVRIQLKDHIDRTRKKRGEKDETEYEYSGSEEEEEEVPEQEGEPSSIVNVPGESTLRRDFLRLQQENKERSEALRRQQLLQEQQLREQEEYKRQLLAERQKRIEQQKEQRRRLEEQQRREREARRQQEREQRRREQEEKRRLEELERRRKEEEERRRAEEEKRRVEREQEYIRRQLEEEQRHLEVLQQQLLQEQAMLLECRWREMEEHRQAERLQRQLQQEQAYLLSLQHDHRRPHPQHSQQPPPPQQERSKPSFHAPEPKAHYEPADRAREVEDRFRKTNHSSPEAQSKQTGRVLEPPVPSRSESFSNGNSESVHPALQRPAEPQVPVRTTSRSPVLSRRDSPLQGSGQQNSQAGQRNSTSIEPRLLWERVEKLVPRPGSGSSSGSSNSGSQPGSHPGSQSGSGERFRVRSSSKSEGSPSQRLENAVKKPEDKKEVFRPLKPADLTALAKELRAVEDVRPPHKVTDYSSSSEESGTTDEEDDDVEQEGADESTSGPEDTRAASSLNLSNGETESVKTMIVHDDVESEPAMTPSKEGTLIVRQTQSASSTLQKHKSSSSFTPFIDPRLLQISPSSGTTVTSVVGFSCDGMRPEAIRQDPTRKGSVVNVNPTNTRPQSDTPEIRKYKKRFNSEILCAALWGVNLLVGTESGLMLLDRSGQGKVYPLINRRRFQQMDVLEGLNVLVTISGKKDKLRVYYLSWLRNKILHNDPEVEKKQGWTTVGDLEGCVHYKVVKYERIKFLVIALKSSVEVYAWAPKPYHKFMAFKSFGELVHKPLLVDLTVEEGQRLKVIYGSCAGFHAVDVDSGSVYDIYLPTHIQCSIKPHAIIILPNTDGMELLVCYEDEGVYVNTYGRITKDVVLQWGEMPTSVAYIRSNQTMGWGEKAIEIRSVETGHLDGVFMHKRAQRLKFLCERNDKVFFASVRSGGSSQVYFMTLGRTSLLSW
UniProt P35240: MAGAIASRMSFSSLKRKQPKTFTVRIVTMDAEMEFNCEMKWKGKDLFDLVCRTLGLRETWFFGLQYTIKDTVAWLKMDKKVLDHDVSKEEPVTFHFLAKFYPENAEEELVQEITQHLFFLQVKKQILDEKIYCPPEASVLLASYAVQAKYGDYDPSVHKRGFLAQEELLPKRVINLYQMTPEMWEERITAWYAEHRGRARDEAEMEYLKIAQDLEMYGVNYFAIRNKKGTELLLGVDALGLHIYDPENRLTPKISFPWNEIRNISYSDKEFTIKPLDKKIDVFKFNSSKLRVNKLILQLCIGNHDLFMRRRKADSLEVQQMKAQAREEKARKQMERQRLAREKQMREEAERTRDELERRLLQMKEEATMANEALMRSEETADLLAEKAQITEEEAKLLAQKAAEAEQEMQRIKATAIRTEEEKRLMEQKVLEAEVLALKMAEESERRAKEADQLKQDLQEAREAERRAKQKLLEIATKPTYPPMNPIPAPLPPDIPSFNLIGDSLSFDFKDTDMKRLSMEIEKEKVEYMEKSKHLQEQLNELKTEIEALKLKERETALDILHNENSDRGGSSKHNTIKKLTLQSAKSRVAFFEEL
UniProt Q14160: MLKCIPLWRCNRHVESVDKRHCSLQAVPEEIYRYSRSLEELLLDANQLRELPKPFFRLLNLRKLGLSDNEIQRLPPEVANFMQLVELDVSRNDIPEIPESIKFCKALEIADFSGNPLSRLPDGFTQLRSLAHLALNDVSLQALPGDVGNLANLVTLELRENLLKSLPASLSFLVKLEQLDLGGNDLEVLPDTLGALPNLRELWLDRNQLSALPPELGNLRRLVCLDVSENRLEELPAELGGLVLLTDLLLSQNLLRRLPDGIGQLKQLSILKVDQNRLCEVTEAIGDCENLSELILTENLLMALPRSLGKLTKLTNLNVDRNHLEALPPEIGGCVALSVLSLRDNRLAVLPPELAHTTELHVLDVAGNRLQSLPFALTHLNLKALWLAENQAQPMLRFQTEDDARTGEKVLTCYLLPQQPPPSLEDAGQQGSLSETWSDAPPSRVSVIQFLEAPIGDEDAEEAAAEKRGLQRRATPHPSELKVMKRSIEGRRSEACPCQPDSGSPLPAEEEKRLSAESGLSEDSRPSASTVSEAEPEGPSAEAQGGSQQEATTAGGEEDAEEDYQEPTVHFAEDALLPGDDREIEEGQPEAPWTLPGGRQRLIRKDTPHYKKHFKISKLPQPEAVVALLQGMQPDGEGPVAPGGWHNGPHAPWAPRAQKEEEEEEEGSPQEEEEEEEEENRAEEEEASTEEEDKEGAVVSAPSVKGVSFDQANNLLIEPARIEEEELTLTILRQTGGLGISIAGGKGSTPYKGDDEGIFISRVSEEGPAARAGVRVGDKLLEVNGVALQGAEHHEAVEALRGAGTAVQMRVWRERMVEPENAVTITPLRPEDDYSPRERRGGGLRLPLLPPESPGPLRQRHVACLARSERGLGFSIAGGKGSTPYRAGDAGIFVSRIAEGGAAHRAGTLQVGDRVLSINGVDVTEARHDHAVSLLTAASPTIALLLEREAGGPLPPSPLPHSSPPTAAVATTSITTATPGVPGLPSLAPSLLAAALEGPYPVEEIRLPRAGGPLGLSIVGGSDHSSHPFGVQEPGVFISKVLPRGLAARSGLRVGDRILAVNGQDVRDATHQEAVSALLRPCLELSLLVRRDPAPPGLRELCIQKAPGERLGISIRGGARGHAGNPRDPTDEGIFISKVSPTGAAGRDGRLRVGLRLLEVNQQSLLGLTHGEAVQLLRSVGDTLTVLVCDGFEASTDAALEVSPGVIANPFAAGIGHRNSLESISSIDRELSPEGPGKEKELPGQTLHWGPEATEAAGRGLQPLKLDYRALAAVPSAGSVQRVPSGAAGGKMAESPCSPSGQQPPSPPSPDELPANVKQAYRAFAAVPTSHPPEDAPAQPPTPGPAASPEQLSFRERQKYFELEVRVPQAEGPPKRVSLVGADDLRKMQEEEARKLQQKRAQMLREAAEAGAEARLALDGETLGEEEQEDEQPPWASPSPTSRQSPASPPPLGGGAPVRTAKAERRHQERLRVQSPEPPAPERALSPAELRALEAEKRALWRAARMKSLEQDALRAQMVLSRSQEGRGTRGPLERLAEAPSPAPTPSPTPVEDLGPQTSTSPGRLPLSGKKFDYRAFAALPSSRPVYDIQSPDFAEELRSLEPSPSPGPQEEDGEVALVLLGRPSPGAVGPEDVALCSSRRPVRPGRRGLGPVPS
UniProt Q9UKE5: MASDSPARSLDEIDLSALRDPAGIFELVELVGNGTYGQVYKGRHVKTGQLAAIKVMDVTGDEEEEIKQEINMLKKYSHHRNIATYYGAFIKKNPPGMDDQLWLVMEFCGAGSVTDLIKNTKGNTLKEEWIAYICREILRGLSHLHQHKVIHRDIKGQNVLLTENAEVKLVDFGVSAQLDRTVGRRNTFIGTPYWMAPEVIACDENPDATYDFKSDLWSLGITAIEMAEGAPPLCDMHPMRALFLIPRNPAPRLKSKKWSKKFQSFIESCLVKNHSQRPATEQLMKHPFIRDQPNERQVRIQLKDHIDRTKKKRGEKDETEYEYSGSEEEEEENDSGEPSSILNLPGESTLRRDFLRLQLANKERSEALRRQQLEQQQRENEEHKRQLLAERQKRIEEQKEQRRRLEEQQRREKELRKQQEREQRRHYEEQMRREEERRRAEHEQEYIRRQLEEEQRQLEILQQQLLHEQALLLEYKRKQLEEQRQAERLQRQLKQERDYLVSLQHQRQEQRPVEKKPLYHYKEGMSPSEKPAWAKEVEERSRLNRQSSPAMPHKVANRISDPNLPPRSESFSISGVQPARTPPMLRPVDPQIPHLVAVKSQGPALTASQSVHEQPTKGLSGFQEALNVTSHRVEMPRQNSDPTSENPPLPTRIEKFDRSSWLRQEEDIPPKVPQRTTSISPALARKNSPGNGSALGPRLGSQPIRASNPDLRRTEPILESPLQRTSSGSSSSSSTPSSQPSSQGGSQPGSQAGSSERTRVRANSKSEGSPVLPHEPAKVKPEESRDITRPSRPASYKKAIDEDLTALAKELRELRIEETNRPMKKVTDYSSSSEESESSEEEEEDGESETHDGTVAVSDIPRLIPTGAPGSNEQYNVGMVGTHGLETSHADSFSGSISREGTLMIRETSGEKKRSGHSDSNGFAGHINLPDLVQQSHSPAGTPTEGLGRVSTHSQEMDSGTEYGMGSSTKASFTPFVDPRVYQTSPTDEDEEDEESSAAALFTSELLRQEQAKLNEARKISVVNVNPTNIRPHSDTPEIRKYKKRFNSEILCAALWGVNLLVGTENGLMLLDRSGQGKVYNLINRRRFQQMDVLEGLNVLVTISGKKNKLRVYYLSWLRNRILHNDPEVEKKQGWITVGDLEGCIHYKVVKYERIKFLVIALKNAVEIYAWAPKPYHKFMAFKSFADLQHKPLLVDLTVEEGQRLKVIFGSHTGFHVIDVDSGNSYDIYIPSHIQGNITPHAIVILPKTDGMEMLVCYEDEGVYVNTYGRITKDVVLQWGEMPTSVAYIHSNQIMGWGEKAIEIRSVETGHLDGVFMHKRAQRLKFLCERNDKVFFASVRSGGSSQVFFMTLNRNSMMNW

Columns and labels:
[1] = target: GFP-CNK2A WT (human) (UniProt Q8WXI2); test: co-IP; HEK293T cells transfected with ARF6-V5 and GFP-CNK2A (WT or W591A), with or without FLAG-CYTH1; lysed 24 h after transfection
[2] = target: endogenous CNK2 (human (endogenous in U2OS)) (UniProt Q8WXI2); test: co-IP; endogenous CNK2 precipitated from U2OS lysate with anti-CNK2 and protein A/G agarose beads, 4 °C; immunoblot of endogenous partners
[3] = target: GFP-CNK2A WT (human) (UniProt Q8WXI2); test: co-IP; U2OS cells expressing GFP-CNK2A (WT or mutant); immunoblot of MAP4K4, CYTH1, CYTH2, CYTH3 or SCRIB in the precipitate
[4] = target: T1, GFP-CNK2A_L955P (human) (UniProt Q8WXI2); test: as above
T1 sequence: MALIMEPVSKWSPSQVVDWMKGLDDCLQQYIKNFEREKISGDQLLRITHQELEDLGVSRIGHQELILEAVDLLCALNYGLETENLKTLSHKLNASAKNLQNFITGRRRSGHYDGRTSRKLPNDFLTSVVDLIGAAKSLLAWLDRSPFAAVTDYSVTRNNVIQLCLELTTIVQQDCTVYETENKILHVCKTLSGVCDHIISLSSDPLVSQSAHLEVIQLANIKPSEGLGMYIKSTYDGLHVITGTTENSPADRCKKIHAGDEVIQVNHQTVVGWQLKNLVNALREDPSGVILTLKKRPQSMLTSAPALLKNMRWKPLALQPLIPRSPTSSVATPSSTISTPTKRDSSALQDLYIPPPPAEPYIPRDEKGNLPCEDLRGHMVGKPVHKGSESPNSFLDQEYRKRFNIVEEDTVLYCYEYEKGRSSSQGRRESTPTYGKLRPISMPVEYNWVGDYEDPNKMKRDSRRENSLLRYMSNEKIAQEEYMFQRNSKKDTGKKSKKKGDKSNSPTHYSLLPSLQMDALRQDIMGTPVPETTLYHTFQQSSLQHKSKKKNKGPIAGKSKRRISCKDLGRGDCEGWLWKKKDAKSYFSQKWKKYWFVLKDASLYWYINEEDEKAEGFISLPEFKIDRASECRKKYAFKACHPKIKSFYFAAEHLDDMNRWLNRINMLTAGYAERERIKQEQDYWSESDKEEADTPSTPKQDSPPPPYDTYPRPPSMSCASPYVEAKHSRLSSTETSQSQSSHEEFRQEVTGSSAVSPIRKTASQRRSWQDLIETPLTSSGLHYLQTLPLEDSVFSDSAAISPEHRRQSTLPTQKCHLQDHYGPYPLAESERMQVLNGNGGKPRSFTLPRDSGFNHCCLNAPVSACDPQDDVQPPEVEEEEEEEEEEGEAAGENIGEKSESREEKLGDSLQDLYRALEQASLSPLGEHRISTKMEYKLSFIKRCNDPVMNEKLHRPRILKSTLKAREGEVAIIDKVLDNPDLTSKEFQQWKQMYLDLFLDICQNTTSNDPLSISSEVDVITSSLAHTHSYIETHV

[5] = target: GFP-CNK2A WT (human) (UniProt Q8WXI2); test: co-IP; U2OS cells expressing FLAG-SAMD12 and GFP-CNK2A (WT or mutant); anti-FLAG M2 with protein A/G beads or GFP-Trap agarose beads, 1 h at 4 °C
[6] = target: T2, GFP-CNK2A_E64R/E68R (human) (UniProt Q8WXI2); test: as above
T2 sequence: T1 sequence with E64R, E68R, P955L

[7] = target: FLAG-BirA*-CNK2A (human) (UniProt Q8WXI2); test: co-IP; co-IP with CNK2A in Flp-In T-REx U2OS cells (Supplementary Fig. 5a)

| Substance | binding [2] | binding [3] | further results |
| --- | --- | --- | --- |
| ARF6-V5 (from UniProt P62330 1-175) | – | – | binding [1]: binds |
| CYTH1 (from UniProt Q15438 1-398) | binds | binds | binding [4]: no binding |
| CYTH2 (from UniProt Q99418 1-400) | binds | binds | – |
| CYTH3 (from UniProt O43739 1-400) | binds | binds | binding [4]: no binding |
| FLAG-SAMD12 (from UniProt Q8N8I0 1-201) | – | – | binding [5]: binds; binding [6]: no binding |
| MAP4K4 (from UniProt O95819 1-1239) | binds | binds | – |
| NF2 (from UniProt P35240 1-595) | binds | – | – |
| SCRIB (from UniProt Q14160 1-1655) | binds | binds | – |
| TNIK (from UniProt Q9UKE5 1-1360) | – | – | binding [7]: binds |
